Reference: paper PMC10726135
Some of the results follow. At the low end of the ranking the order means little. The protein was read in a cell extract, so binding may be indirect.

molecular target: T1, HNF4alpha8 (COS-7 nuclear extract) (UniProt P41235-5); test: protein-binding microarray; details: COS-7 nuclear extract on double-stranded Agilent 4x180k PBM; binding buffer, salt, pH and temperature not given; high values mean tight binding; double strand, one strand shown; sequences stand for … in …GCCTAGGGAGATTAGAGTATCGGTCGA
T1 sequence: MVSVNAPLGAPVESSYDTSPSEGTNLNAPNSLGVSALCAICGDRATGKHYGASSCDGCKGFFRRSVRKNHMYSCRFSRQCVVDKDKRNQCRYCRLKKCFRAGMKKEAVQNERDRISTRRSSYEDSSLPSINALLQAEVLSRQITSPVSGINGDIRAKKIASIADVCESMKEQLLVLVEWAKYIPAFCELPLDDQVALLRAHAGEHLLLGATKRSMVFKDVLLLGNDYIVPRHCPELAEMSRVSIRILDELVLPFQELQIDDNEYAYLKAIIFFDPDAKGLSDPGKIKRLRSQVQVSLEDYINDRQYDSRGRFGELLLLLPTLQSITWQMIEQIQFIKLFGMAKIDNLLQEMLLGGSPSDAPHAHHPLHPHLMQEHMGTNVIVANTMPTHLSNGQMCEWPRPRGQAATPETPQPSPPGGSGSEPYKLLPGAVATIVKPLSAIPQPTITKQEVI

Sequence | binding signal (log2 normalized intensity)
AAACCAACACCAGCAACCGCCTACCTTTGG | -1.37
TGGCCTGGTTCCTTCTCAGTGACAAAAACA | 0.68
CTTTGCCCCCAGCCTCTCACAGTAGCCCAG | 4.72
AGAGGCCTGGGAATGCCTAGGGGGAAGCCC | -1.35
CCTTTGAACCAGAGAAGATTCCAGAGGGAG | -1.16
GACTCAAATCCAAGCTGGCTGGCTTTAGAG | -1.33
AGTGCCAGAGCTGTGAAGACTGCAGCAAAG | -1.17
GTAACTCTGGGTCTGAGACCAAAGTCCAGA | 6.64
TGTCCTGAGTTATTGGAAGAATGGAATTGC | 1.27
ATCGGTAAATACGAATAATCATATCTGCCT | -1.31
GCACTAAGCCGAACGCTGGGGCAAAGGTTT | 2.89
ACAGGATCAATAAAAGGTCCAGAGTTCACT | 4.78
GCTGAAGGGAAGGCTGCCGTCCTCAGTGAA | -1.42
ACGGCGCTGACGCCGCCTCTGCCTCTTGAC | -1.37
ATGCCCCATGGTAAGAACTACAGTTGACCT | 4.71
ACATTCATCTGAGACTAACTGCATTTTGGA | 1.24
AAGGAACTCCATCCTCACTTTAGGTGCTCT | -1.24
TGCTGACCTTTAAGCCTATAGTTTCTGTTT | 3.26
ACTGTAAACATCTAATGAACTGATTAGAAC | -1.16
AATGTGATAAGAATTTTGTGCAATTACACA | -1.11
TACTGAAAATGACCTTTGTTCCCTGCACTT | 7.89
GGTCACAAGAGGTGCTGTGTGCCTGAGAAT | 0.1
TAAAGATAAGAACGCTAGACACTGGGGACT | -1.35
AAGAACACAGCGCAGCACACTGCAGCGGCA | -1.22

Sequence | binding signal (log2 normalized intensity)
TGGTGGCTTGAGTTGGAGAAGAGCAAAGAT | -1
AGAGCAGGAATTCTGATCTTTGACCTCTCC | 8.08
ACCCTCAGGAACCAAGCATTTTGCAAGTTC | -0.863
CTGAGGTGGGAGGATCGCTTGAGCCTGGGA | -1.31
CCAGCAGCTCCAGGAGACGTAGAGATAAGG | -1.41
CAAGTTACACAAGTAGAATGAAAGCGGCTC | -1.23
CTCTGAGCTTCATCCTGACCATCTGCGAAA | -1.15
TCATGGCTCACTGCACCTTGACCTCCTGGG | 5.78
GATAATAAGTGACCCAGGAGGAGAAGGGTG | -1.28
TCTTGTAATCTGCTTCCAGTTCCATAATCC | 0.842
AGTGGGAGTTACACTATCGGCTTCCCTGGT | -1.24
GAGGTGTTCGGGGGACGGAGAGCAGGGCGT | -1.21
AAAGAGTGATTGAAGAAGTGGTTCTTTAGA | -1.19
CTGAGGCCAAAAGTCTCAGAAGCTGGGAGA | -1.33
GCAGCAATCAGCTCCTCAACCAAGGGATCA | -1.3
ACTTAGTCTCCAGCCCCCAGAGGTCACACT | 4.42
AGCTATGGGCAGAAAAAAATGAGTCACAAT | -1.15
CAGGCATTCCACACTGCAGGCTCTGTCCCC | 1.27
TCAACTCTGCCATTGTCGTGGTTGTAGAAA | 1.29
TGAAACAAGCCCATCTTCCAGAAAACGGGA | -1.18
TAAAAACACGAGCTATTGCGAGGTTCCATG | 0.00343
TCTGAAAAAAGCTATCATTTGTCACTTGGA | 0.664
TCAACTAAGACAGACCCAAAGGTTAAGGAA | 0.493
GTGGCCCAAGATGGAGATGAGAAACTTATT | -1.36

Sequence | binding signal (log2 normalized intensity)
TACTTAAGATAGAGGCTTTAGCAATAAATT | -1.35
ATGGTATGCTCTGATATTCTCTTATCTACT | 0.68
TTGGGAGCAATTTAGCAGCACCATCCTACA | -1.24
TTCATGATCAGGCAAGTGGTCATGTAGGTG | 1.61
TGGACTTTAAACATTCCCACCTAAGACATA | 3
GTTTTTCCTTGATTAAACTTTAGTCAGATT | 3.09
CCGGCCGGCGGGGTCACGTGGGGCCGGTAC | 3.59
AAACTCTTTTCCTTTTTGCATGAGAATCTG | 1.06
TTTAGGCAGTTTTTGATCAAGGAGGACTTT | 4.55
GGAACGTCACACTGAAAGCTATCCCTCCAT | -1.2
GGAGCACACCAGGCCCTCGGCATCATGCCC | -1.15
TGTCCTTCATCTATCTCCTTCTTCCCTTCT | -0.722
CTCTAGGCATTGGAGATATGATAGCTGACA | -1.27
AGGGGTGGATCTCTGTCATGTTCAATATAC | 1.04
TTTTCTCATAAAACACCCACCTTGTTATCT | 1.79
AAATCATGGATCTGTGCTCAGATCCTGCTC | -0.984
GGCGAATGTCAAAGGTCTTTGGTGGTGGGG | 2.45
CAGCTCGTGGGCATGCCTCCCAGAGCATTG | -1.35
TGCAGCCTTGGACTCCTGGACTCAAGGAAT | 4.93
GCTGGTTGCCCCTTTGACCCTCGGGCCTCC | 6.49
CAGATCAAAGGACATTTCTAAAAATAGCCT | -0.707
ATTTGTCCGGGTATGTTCTTAAGATAAGGA | 0.776
TGCTCTTTCTTCTCTGTAGGTAAACAGTGA | 1.39
CTTGGGGCTGATATCTCTCTGGCTGGTGGG | -1.03
